# Test results: PubChem BioAssay AID686979 (National Center for Advancing Translational Sciences (NCATS), 2013)
# Among all 420,000 compounds or so, about 50,000 (12%) were called active. This list was built around the results that the source calls inconclusive (neither active nor inactive); the mix of calls is not that of the screen. Calls come from the whole dose curve; as a rule, active = well fitted inhibition curve with a large enough effect; inconclusive = small, poorly fitted or top-dose-only effect; inactive = flat fitted curve, though single readings scatter. Potencies of inconclusive entries are left out as doubtful fits.
# Test: qHTS for Inhibitors of human tyrosyl-DNA phosphodiesterase 1 (TDP1): qHTS in cells in presence of CPT; note: nearly all actives have a fitted effect of over 55% in size
# Settings: chicken DT40 Tdp1-/-;hTDP1 cells + 20 nM CPT, ATP luminescence, 48 h; activity change, negative = growth inhibition: at 46.2 µM (top of the series) unless noted
# How it was run: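 Cell growth measured by CellTiter-Glo luminescence after a minimum 48 h, 37 C compound exposure with 20 nM CPT in Tdp1-knockout DT40 cells stably expressing hTDP1, seeded 400/well; qHTS titration format.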
# % is set by controls: 0 for no effect and ±100 for the full control effect; potency is the fitted concentration of half-maximal effect; tags give direction and shape of the fitted curve.
SMILES,Potency,"activity change, negative = growth inhibition"
Cc1ccccc1NC(=O)Cn1c(=O)n(CCc2ccccc2)c(=O)c2ccccc21,"inconclusive [inhibitor, single point]",–
COc1cc(-c2cnc3ccccc3c2)cc2c1OCCN(C(=O)CCn1nc(C)cc1C)C2,–,inactive: 3.41% [at 9.04 µM]
Cc1ccc(OCc2ccc(C(=O)Nc3c(C)nn(Cc4c(F)c(F)c(F)c(F)c4F)c3C)o2)c([N+](=O)[O-])c1,active: 13 µM,–
COCc1ccc(C(=O)NC2CCCN(Cc3ccccc3F)C2)o1 (stereo not given),inactive,–
CNC(=O)/C(C#N)=C\c1ccc(CNS(=O)(=O)c2ccc(Cl)cc2)o1,"inconclusive [inhibitor, single point]",–
O=C(Cn1ncc2c([nH]c3ccccc32)c1=O)NCCCN1CCN(c2ccccc2)CC1,"inconclusive [inhibitor, single point]",–
Cc1cccc(N2CCN(S(=O)(=O)c3cc(C(=O)Nc4ccc(Oc5ccccc5)cc4)ccc3F)CC2)c1C,active: 5.17 µM,–
O=C(O)c1ccc(N/N=C/c2cn(Cc3ccc(F)cc3)c3ccccc23)cc1,–,inconclusive: -33.3% [inhibitor]
O=c1oc2ccccc2c(N2CCN(c3ccc(F)cc3)CC2)c1CN1CCCC1,"inconclusive [inhibitor, single point]",–
Cc1c(CC(C)C)nc(N)c(C#N)c1-c1ccccc1,"inconclusive [inhibitor, single point]",–
COc1cccc(/C=C/C(=O)OCC(=O)NC2CC2)c1,inactive,–
COc1ccc(C(=O)COC(=O)c2cc(-c3cccs3)nc3ccccc23)cc1,inactive,–
N#C/C(=C\N1CCOCC1)c1ccccc1,inactive,–
CCCCn1cc(S(=O)(=O)c2cc(C)ccc2C)c(=O)c2cc(F)c(F)cc21,"inconclusive [inhibitor, single point]",–
CC(C(=O)Nc1ccc(OC(F)(F)F)cc1)N1Cc2ccccc2C1=O (stereo not given),inactive,–
Cc1oc(-c2ccccc2F)nc1CN1CCC(C(=O)NCCc2ccccc2)CC1,"inconclusive [inhibitor, single point]",–
COc1cc(C2c3cc4c(cc3C3OC(=O)C2C3CO)OCO4)cc(OC)c1OC (stereo not given),active: 0.0103 µM,–
COc1cc(CC(=O)OCC(=O)Nc2cccc([N+](=O)[O-])c2)cc(OC)c1OC,inactive,–
O=C(O)c1ccc(Nc2nc(-c3ccccc3)c3ccccc3n2)cc1,inactive,–
CCNc1nc(NCC)n2c(SCC(=O)N(CC)C3CCCCC3)nnc2n1,"inconclusive [inhibitor, single point]",–
